Results as given in patent US11773183B2, “MUC16 monoclonal antibody and uses thereof” (QUEST PHARMATECH INC., priority 2018, dated 2023).

Key:
MUC16 TR1.2 = biological target: T1, MUC16 TR1.2 (Homo sapiens, UniProt Q8WXI7); assay: Binding specificity against MUC16 TR1.2 purified from CHO wild-type cells treated with glycosidases; details: MUC16 TR1.2 from CHO wild-type cells
T1 construct: made in house; host or cells: CHO cells (wild type)
T1 sequence (Q8WXI7 12665-12858): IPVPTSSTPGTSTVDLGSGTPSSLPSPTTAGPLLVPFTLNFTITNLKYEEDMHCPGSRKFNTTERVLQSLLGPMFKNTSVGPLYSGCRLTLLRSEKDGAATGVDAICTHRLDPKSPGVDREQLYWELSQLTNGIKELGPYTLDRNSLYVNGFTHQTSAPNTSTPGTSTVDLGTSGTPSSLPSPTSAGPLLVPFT

MUC16 [1] = assay: Binding specificity against different pancreatic cancer cells; parameters: species or system human; details: FIG. 2A, compared to mAR9.6 (FIG. 2B)
MUC16 [2] = biological target: T2, MUC16 (Homo sapiens, UniProt Q8WXI7); assay: Binding specificity against T3M4 cells treated with glycosidases
T2 construct: against human pancreatic cancer cells (T3M4) that are treated with Sialidase, O-glycanase and N-glycanase enzymes; endogenous in cells; host or cells: T3M4
Procedure: Now referring to FIG. 2. The binding specificity of humanized version of the anti-MUC16 TR1.2A, namely (POCmAb) against various pancreatic cancer cells is tested. […] Next, the binding specificity of murine mAR9.6 and humanized POCmAb anti-MUC16 antibodies against human pancreatic cancer cells (T3M4) that are treated with Sialidase, O-glycanase and N-glycanase enzymes is tested. […] Next, the binding specificity of murine mAR9.6 and humanized POCmAb anti-MUC16 antibodies against MUC16 TR1.2 purified from CHO wild-type cells, which was treated with different glycosidases such as sialidase, O-glycanase and N-glycanase was tested. […] However, O-glycans and sialic acid groups on the MUC16 either blocks or mask the epitopes for anti-MUC16 antibody reactivity.

MUC16 [3] = assay: Binding specificity to PDAC patients ascites fluid samples; parameters: species or system human; details: 6/16 samples, FIG. 5A
T3M4 wildtype (WT) cells = assay: Live/Dead cell cytotoxicity assay, T3M4 wildtype cells; assay type: cell-based, human; details: 24 h, antibody 5 μg/ml, where combined Sapitinib 5.4 μM, LY294002 11.3 μM
Procedure: (§1) Materials and Methods. T3M4 wildtype (WT) and COSMC deleted (SimpleCells, SC) were treated with equal amounts of mAR 9.6 (5 μg/ml) and POCmAb (5 μg/ml) or with isotype matched (either mouse or human) control IgG antibody for 24 h. For the comparison of effect of antibodies in inducing cell death, T3M4 WT cells were treated with Sapitinib (an ErbB receptor tyrosine kinase inhibitor, 5.4 μM) and LY294002 (PI3K/Akt inhibitor, 11.3 μM) alone or in combination with mAR9.6 (5 μg/ml) and POCmAb (5 μg/ml) for 24 h. The cells were washed well with cell-culture grade PBS. 20 μl ethidium homodimer-1 (EthD-1, 2 mM) was dissolved in 10 ml PBS. To this solution, 5 μl of calcein acetoxymethyl ester (calcein-AM, 4 mM) was added. 150 μl of this combined reagent was added to the cells grown on coverslip and incubated for 30-45 minutes. The numbers of live and dead cells were detected with Zeiss LSM 710™ confocal laser scanning microscope (Carl Zeiss, Inc., Thornwood, NY, USA) at Confocal Laser Scanning Fluorescence Microscope Core Facility, UNMC. The ratio of dead cells to total cells was calculated for quantitative comparisons. Unpaired Student's t-test was performed to calculate the statistical significance between the antibodies treated T3M4 WT and T3M4 SC cells (n=4) (p<0.05 considered statistically significant). […]

[4] = test system: T3M4 COSMC deleted (SimpleCells, SC) cells; assay: Live/Dead cell cytotoxicity assay, COSMC deleted T3M4 SimpleCells; assay type: cell-based, human; details: 24 h, antibody 5 μg/ml
Procedure: as §1

B1: POCmAb: Recombinant anti-MUC16 mAb: VH SEQ ID NO:15 and VL SEQ ID NO:16 with human IgG1 heavy and human kappa constant domains (antibody, V domains shown)
VH: EVQLVESGGGLVQPGGSRKLSCAASGFTFSTFGMHWVRQAPEKGLEWVAYISSGSSTIYYGDTLQGRFIISRDNPKNTLFLQMTSLRSEDTAMYYCARSGYDYDPIYYALDYWGQGTSVTVSS
VL: DIVLTQSPASLAVSLGQRATISCRASESVDNYGISFMNWFQQKPGHPPKLLIYGASNQGSGVPARFSGSGSGTDFSLNIHPMEEDDAAMYFCQQTKEVPWTFGGGTKVEIKR
modifications: human IgG1 and kappa constant domains; Variable heavy domain; Variable light domain
antibody reactivity, samples treated with N-glycanase (MUC16 TR1.2; lanes 2 and 5, FIG. 4): reduced reactivity
antibody reactivity, samples treated with O-glycanase and sialidase alone or in combination (MUC16 TR1.2; lanes 3, 4 and 6, FIG. 4): increased reactivity
recognition of MUC16 in different pancreatic cancer cells (MUC16 [1]): recognizes various isoforms of MUC16
antibody reactivity, samples treated with N-glycanase (MUC16 [2]; lanes 2 and 5, FIGS. 3A and 3B): reduced reactivity
antibody reactivity, samples treated with O-glycanase and sialidase alone or in combination (MUC16 [2]; lanes 3, 4 and 6, FIGS. 3A and 3B): increased reactivity
PDAC patients ascites fluids in which MUC16 isoforms are recognized (MUC16 [3]): 37.5%
cell death (ratio of dead cells to total cells) (T3M4 wildtype (WT) cells): about 39%
cell death (ratio of dead cells to total cells) [4]: about 55%
